Out of some 350,000 compounds screened, about 9,900 (2.8%) were called active. The call rests on the fitted dose curve; in most records, active means well fitted activation curve with a large enough effect; inconclusive means small, poorly fitted or top-dose-only effect; inactive means no such curve, though single readings can be large or run the other way. The inconclusive results got no clear call from the source. No potency is given beside an inconclusive call; the fits are too rough.
Test: A quantitative high throughput screen for small molecules that induce DNA re-replication in MCF 10a normal breast cells. Further: nearly all actives have a fitted effect of over 50% in size.
Conditions: MCF 10A DNA re-replication, Hoechst nuclear intensity, 48 h; series mostly up to 46.1 µM
Potency means the concentration at half of the fitted maximal effect; tags describe the fitted curve by direction and shape.

Compound | Potency
Cc1cc(C)cc(-n2cccc2/C=C2/C(=N)N3C(=NC2=O)SN=C3S(C)(=O)=O)c1 | inconclusive [activator, single point]
CCOc1cc(/C=C2/C(=N)N3C(=NC2=O)SN=C3S(C)(=O)=O)ccc1OS(=O)(=O)c1ccccc1 | inconclusive [activator, single point]
Cc1ccccc1N/N=C/c1sc(=O)n(Cc2cccc(C(=O)O)c2)c1Cl | inconclusive [activator, single point]
CCOC(=O)c1sc(N2C(=O)C(O)=C(C(=O)c3ccc(C)o3)C2c2cccc([N+](=O)[O-])c2)nc1C (stereo not given) | inconclusive [activator, single point]
COc1cc(/C=C2\C(=N)N3N=C(S(C)(=O)=O)SC3=NC2=O)cc(OC)c1OCCOc1ccc(C)cc1 | inconclusive [activator, single point]

— PubChem BioAssay AID624296 (National Center for Advancing Translational Sciences (NCATS), 2012)
